Experimental data taken from article PMC2566891 (Nucleic Acids Research, 2008).

Target: T1, 14-3-3ɛ (UniProt P62258 1-255)
T1 sequence: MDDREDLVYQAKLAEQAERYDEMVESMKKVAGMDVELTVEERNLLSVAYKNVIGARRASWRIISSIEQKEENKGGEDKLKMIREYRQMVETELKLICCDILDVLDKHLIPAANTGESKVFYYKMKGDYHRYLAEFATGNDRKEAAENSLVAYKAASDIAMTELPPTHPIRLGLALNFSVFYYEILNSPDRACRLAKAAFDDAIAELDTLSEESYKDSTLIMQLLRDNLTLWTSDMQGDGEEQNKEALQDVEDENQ
Assay: fluorescence polarisation

B1: p53TCT pS366/pT387 ([…]) (domain or fragment)
chain: not shown
**Q.** With B1 as the binder, how does the Kd read?
**A.** 310 ± 8 nM
